Out of some 220,000 compounds screened, about 5,700 (2.6%) were called active. Inconclusive results, whose numbers are uncertain, are shown with a selection of clear calls. Calls follow the shape of the dose curve; as a rule, active = well fitted inhibition curve with a large enough effect; inconclusive = small, poorly fitted or top-dose-only effect; inactive = no such curve, though single readings can be large or run the other way. Potencies of inconclusive entries are doubtful fits and often do not repeat.
target: Lysine-specific demethylase 5B (Homo sapiens) (UniProt Q9UGL1); experiment: Primary screen for KDM5B Histone Demethylases FDH-coupled qHTS; conditions: FDH-coupled NADH fluorescence (FDH is formaldehyde dehydrogenase); activity change, negative = inhibition: at 57.7 µM (top of the series) unless noted; also: nearly all actives have a fitted effect of over 70% in size; as to activity change, negative = inhibition: 0% is about no effect
Method in brief: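 Coupled FDH/NAD⁺ fluorescence readout. KDM5BΔAP 200 nM final; compound titration, 10 min RT preincubation; substrate mix 12.5 µM H3K4me3, 25 µM 2-OG, 50 µM Fe(II), 100 µM ascorbate, 0.25 mM NAD⁺, 0.25 U/mL FDH; ΔRFU over 30 min.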
Potency is read from the fitted curve at half-maximal effect; tags tell the direction and shape of the fitted curve.

UniProt Q9UGL1, sequence (Q9UGL1 whole entry, looked up): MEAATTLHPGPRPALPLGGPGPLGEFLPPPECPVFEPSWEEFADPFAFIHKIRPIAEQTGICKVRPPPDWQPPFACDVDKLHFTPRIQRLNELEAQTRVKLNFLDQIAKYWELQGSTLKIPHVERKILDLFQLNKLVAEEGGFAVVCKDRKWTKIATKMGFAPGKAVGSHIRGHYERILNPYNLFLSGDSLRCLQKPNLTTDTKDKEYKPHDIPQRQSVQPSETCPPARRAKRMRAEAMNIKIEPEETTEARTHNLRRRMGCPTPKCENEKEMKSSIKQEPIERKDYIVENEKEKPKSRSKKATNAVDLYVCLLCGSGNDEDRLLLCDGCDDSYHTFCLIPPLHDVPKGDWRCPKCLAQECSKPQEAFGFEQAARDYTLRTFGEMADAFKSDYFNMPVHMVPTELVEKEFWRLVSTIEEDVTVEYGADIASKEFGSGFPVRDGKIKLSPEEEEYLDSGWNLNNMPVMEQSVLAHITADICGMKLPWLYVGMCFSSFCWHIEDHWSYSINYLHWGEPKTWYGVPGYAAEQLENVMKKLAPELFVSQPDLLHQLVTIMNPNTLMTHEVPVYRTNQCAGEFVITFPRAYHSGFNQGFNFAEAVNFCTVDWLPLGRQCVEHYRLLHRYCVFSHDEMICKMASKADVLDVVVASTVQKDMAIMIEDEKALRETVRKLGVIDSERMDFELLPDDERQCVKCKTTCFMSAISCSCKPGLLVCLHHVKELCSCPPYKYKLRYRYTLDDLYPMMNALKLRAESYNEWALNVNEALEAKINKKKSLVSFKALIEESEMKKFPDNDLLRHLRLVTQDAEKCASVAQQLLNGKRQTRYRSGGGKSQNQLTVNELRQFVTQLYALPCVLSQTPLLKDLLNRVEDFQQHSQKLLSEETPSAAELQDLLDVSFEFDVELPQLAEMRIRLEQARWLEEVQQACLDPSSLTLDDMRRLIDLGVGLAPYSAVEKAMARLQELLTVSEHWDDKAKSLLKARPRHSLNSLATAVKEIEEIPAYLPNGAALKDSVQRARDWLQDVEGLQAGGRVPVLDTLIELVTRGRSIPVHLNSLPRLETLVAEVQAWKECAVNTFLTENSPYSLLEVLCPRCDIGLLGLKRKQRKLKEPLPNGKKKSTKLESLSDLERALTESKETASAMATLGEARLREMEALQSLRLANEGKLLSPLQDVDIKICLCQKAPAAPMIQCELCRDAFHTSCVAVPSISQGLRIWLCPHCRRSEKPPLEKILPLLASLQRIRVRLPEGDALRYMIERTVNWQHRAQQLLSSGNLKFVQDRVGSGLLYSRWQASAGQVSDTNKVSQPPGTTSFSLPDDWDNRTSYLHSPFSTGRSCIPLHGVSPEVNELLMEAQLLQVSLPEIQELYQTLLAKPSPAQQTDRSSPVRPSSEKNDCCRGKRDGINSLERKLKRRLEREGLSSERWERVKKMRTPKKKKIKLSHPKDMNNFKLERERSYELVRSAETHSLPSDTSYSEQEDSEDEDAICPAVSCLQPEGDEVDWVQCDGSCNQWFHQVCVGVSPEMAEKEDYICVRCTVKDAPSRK

Row | Structure (SMILES) | Potency | activity change, negative = inhibition
1 | Cc1ccc(-c2n[nH]c(=O)c3ccccc23)cc1S(=O)(=O)NC(C)(C)C | inconclusive: 31.6 µM [inhibitor, single point] | –
2 | CC(c1cc(F)ccc1F)N(C)CCS(=O)(=O)CCC(N)=O (configuration not stated) | – | inactive: 13.9%
3 | O=C(CSc1ncc(-c2ccccc2)[nH]1)Nc1ccc(Cl)cc1 | inconclusive: 17.8 µM [inhibitor, single point] | –
4 | Cc1ccc(CNc2nc(-c3ccco3)nn2S(=O)(=O)c2ccc3ccccc3c2)cc1 | inconclusive: 17.8 µM [inhibitor, partial curve, poor fit] | –
5 | Cc1ccc(CS(=O)Cc2cccc(F)c2)cc1 (configuration not stated) | – | inactive: 6.21%
6 | O=C(OCc1ccccc1)N1CCOCC12CCN(Cc1ccc(O)cc1)CC2 | – | inactive: -17.7% [at 86.2 µM]
7 | CSc1ncc(C(=O)N2CCN(c3cccc(Cl)c3)CC2)c(C)n1 | – | inconclusive: -37.3% [inhibitor]
8 | COc1cccc(Nc2cc3c(cn2)CN(C(C)=O)CCN3)c1 | – | inactive: -29.8% [at 86.2 µM]
9 | Cc1cc(C)nc(NC(=O)c2c(F)c(F)c(F)c(C(=O)Nc3cc(C)cc(C)n3)c2F)c1 | inconclusive: 31.6 µM [inhibitor, partial curve, poor fit] | –
10 | CC1(COc2cccnc2)COc2ccc(C(=O)NCC3CCOCC3)cc2N1 (configuration not stated) | active: 35.5 µM | –
11 | N#C/C(=C\C1CC=CCC1)C(=O)NCc1ccccc1 (configuration not stated) | inconclusive: 35.5 µM [inhibitor, partial curve, poor fit] | –
12 | Cc1c(C)n(Cc2ccc(F)cc2)c2ccc(C(=O)NCc3ccco3)cc12 | inconclusive: 25.1 µM [inhibitor, partial curve, poor fit] | –
13 | CCOc1ccc(C2c3c(oc4ccc(C)cc4c3=O)C(=O)N2CCCN2CCOCC2)cc1 (configuration not stated) | inconclusive: 15.8 µM [inhibitor, partial curve, poor fit] | –
14 | CCN1c2ccccc2-c2nc(SCC(=O)NCc3ccc(Cl)cc3)ncc2S1(=O)=O | inconclusive: 31.6 µM [inhibitor, partial curve, poor fit] | –
15 | Cc1ccc(CN2CCn3c(nnc3[C@@H]3C[C@@H](O)CN3Cc3cccnc3)C2)s1 | inconclusive: 28.2 µM [inhibitor, partial curve, poor fit] | –
16 | COc1ccc2c(C)c(CC(=O)Nc3ccc4c(c3)OCO4)c(=O)oc2c1 | inconclusive: 31.6 µM [inhibitor, single point] | –
17 | Cc1cc(N2CCN(C)CC2)nc2ccc(NC(=O)Nc3cccc(Cl)c3)cc12 | inconclusive: 28.2 µM [inhibitor, partial curve, poor fit] | –
18 | Cc1noc(-c2ccn3c(CNC(=O)CCC4CCCC4)nnc3c2)n1 | active: 22.4 µM | –
19 | CCn1c(CNC(C)c2ccc(Cl)c(Cl)c2)nc2cc(S(=O)(=O)N3CCOCC3)ccc21 (configuration not stated) | – | inactive: -13.5%
20 | COc1ccc2[nH]c3c(c2c1)CCN(C)C31CCN(C(=O)COc2ccc(F)cc2)CC1 | inconclusive: 20 µM [inhibitor, partial curve, poor fit] | –
21 | CCc1noc(-c2cccn3c(CNC(=O)c4cccc(OC)c4)nnc23)n1 | active: 22.4 µM | –

Row | Structure (SMILES) | Potency | activity change, negative = inhibition
22 | CC(=O)N1CCC(C(=O)N2CCN3C(=O)c4cc(-c5ccc6c(c5)OCO6)ccc4NC(=O)[C@H]3C2)CC1 | inconclusive: 22.4 µM [inhibitor, single point] | –
23 | CN(C)CCCC(=O)N1Cc2ccccc2CC2(CCCCN2CC2CCNCC2)C1 (configuration not stated) | – | inactive: -25.7% [at 115 µM]
24 | Cc1ccccc1CNC(=O)c1oc2c(c1C)-c1[nH]ncc1CC2 | inconclusive: 31.6 µM [inhibitor, partial curve, poor fit] | –
25 | Cc1ccccc1Nc1nn2c(=O)c3ccc(C(=O)NCCc4ccc(Cl)cc4)cc3nc2s1 | inconclusive: 25.1 µM [inhibitor, partial curve, poor fit] | –
26 | CC(=O)NC1CCN(c2nc3ncccc3o2)CC1 | active: 28.2 µM | –
27 | CCOc1ccccc1CN1CCC2(CCN(C(=O)N(C)C)CC2)Oc2ccccc21 | inconclusive: 35.5 µM [inhibitor, partial curve, poor fit] | –
28 | c1ccc(CN2CCn3c(nnc3-c3cccnc3)C2)cc1 | inactive | –
29 | COc1ccc(CNc2cc(-c3ccc(OC)cc3)nc3nncn23)cc1 | inconclusive: 35.5 µM [inhibitor, single point] | –
30 | O=C(Nc1ccc(S(=O)(=O)Nc2nccs2)cc1)c1cccc(N2C(=O)c3ccccc3C2=O)c1 | inconclusive: 22.4 µM [inhibitor, partial curve, poor fit] | –
31 | Cc1ccsc1C(=O)N1CCC2(CCCCO2)CC1 | – | inactive: 0.588%
32 | CN(C)C[C@@H]1CN(c2ncccn2)C[C@H]1NS(=O)(=O)c1cccs1 | inconclusive: 28.2 µM [inhibitor, partial curve, poor fit] | –
33 | CN1CCN(CCC2(Cc3ccccc3)CCOC(C)(C)C2)CC1 (configuration not stated) | inconclusive: 14.1 µM [inhibitor, partial curve, poor fit] | –
34 | Clc1ccc(C2=Nn3c(Cn4nnc5ccccc54)nnc3SC2)cc1 | inconclusive: 10 µM [inhibitor, partial curve, poor fit] | –
35 | C(=C\c1ccccc1)/Sc1cccc2cccnc12 | inconclusive: 35.5 µM [inhibitor, single point] | –
36 | Cc1cccc(-n2ncc(C(=O)NCc3ccccn3)c2C2CCN(C(=O)OC(C)(C)C)CC2)c1 | inconclusive: 44.7 µM [inhibitor, single point] | –
37 | O=C1NC2(CCN(C(=O)CCc3cccnc3)CC2)CC1c1ccccc1 (configuration not stated) | – | inactive: -9.75%
38 | c1ccc(-c2cc(-c3ccccc3)[o+]c(-c3ccccc3)c2)cc1 | inconclusive: 28.2 µM [inhibitor, partial curve, poor fit] | –
39 | CCN1CCN(Cc2c(O)ccc3c(C)c(-c4ccccc4)c(=O)oc23)CC1 | inconclusive: 15.8 µM [inhibitor, partial curve, poor fit] | –
40 | CC(CCc1ccccc1)NC(=O)C1CCN(S(=O)(=O)c2cccc(Cl)c2Cl)CC1 (configuration not stated) | – | inactive: 1.62%
41 | O=C(COc1ccc(F)cc1)NCC1Cn2cccc2CN1Cc1ccccc1 (configuration not stated) | active: 25.1 µM | –
42 | Cn1c(=O)n(-c2cccc(Cl)c2)c(=O)c2sc3ccccc3c21 | inconclusive: 2.82 µM [inhibitor, partial curve, poor fit] | –
